# Laboratory results published in the supplement of paper PMC10441789.
# The other results are listed elsewhere or left out. Antibody binding of pooled human sera (four to six donors per pool; dilution not stated) to peptides of the Trypanosoma cruzi antigen TSSA on microarrays. Quantile-normalised fluorescence in arbitrary units, mean of duplicate arrays; higher = more binding. No active / inactive call. The uninfected pools are read here as the healthy donors of the same country. The strongest signals lie near the top of the scale (about 60,000).
# Assays:
# Test in all cases: antibody binding signal (normalised fluorescence) (arbitrary fluorescence units); higher = stronger serum antibody binding to peptide
# [1] = tested on: pooled sera of chronic Chagas disease patients, Argentina
# Description: (§1)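 Microarray of 15-residue peptides over residues 30-55 of Trypanosoma cruzi TSSAII, each with 1 to 10 substitutions at naturally variable positions, probed with one serum pool per country.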
# [2] = tested on: pooled sera of chronic Chagas disease patients, Bolivia
# Description: as §1
# [3] = tested on: pooled sera of chronic Chagas disease patients, Brazil
# Description: as §1
# [4] = tested on: pooled sera of chronic Chagas disease patients, Colombia
# Description: as §1
# [5] = tested on: pooled sera of chronic Chagas disease patients, Mexico
# Description: as §1
# [6] = tested on: pooled sera of chronic Chagas disease patients, USA
# Description: as §1
# [7] = tested on: pooled sera of uninfected people, Argentina
# Description: as §1
# [8] = tested on: pooled sera of uninfected people, Bolivia
# Description: as §1
# [9] = tested on: pooled sera of uninfected people, Brazil
# Description: as §1
# [10] = tested on: pooled sera of uninfected people, Colombia
# Description: as §1
# [11] = tested on: pooled sera of uninfected people, Mexico
# Description: as §1
# [12] = tested on: pooled sera of uninfected people, USA
# Description: as §1
Sequence,antibody binding signal [1],antibody binding signal [2],antibody binding signal [3],antibody binding signal [4],antibody binding signal [5],antibody binding signal [6],antibody binding signal [7],antibody binding signal [8],antibody binding signal [9],antibody binding signal [10],antibody binding signal [11],antibody binding signal [12]
ENKTAAGEAPSPPGA,271,1020,7630,285,365,7540,146,121,214,168,97.9,178
GKDNKAATGGAPSPP,707,232,768,1150,1450,1760,232,243,96.6,148,84.3,85.5
GKEKKTATGETPSQS,5340,536,1700,4190,5930,7900,182,114,104,81.4,87.2,101
SGKDNKPAAGETPSP,746,666,17900,1290,853,3840,386,754,171,546,489,457
KEKKAAAGEAPSPPG,178,187,425,164,131,6760,113,69.2,101,96.3,73.8,82.9
GTENKAATGETPSPS,33500,10200,17400,908,1100,11900,163,394,173,175,452,2560
GTEKKAAAGETPSPS,548,277,658,721,742,4080,139,867,168,189,337,2050
TENKTATGETPSQSG,18500,1560,7750,211,245,7750,117,200,213,147,287,141
DKKPAAGGTPSQSGA,623,212,296,5050,304,1340,230,163,1670,193,140,307
TISTPPSGTDNKPAA,46800,49600,54100,6090,13300,27000,4010,918,1080,525,962,1030
SGTEKKTATGGTPSQ,2510,904,1840,6290,1570,2570,306,642,331,941,279,130
ENKAAAGETPSQSGA,244,737,16200,238,155,2690,84,222,154,179,152,186
SGTENKAAAGGAPSQ,40000,8640,17400,3770,1280,4410,468,333,205,320,168,213
KDKKPATGGAPSPSG,393,478,219,627,243,985,224,317,99.5,86.1,85.5,96
PSGKDNKPAAGETPS,4000,1500,11200,4950,5180,8690,834,1480,285,441,327,160
TEKKTAAGEAPSPSG,649,245,620,728,509,7180,211,198,183,1090,281,258
SSTPPSGKDKKTATG,19900,584,730,292,40500,632,147,185,120,147,99.1,117
GTENKAATGGAPSPS,40600,2300,3850,1620,2060,3020,301,512,511,226,170,179
KDNKTAAGETPSPPG,980,275,508,2210,270,890,535,273,237,237,226,1120
SGKENKPATGEAPSP,49100,49800,49700,1620,2810,33300,8690,4930,385,397,721,217
KDKKAATGGAPSQPG,428,200,1020,232,605,418,266,102,108,192,85.3,121
TPPSGTEKKAAAGET,28900,16000,25300,312,5480,3030,847,368,401,175,259,170
KKPATGGAPSQPGAS,487,564,9040,448,399,514,349,670,106,121,91.4,337
GKDKKTATGETPSQS,728,253,625,1450,1190,4920,160,110,108,92.6,78,98.3
KENKAATGETPSQPG,6400,3710,41800,341,333,12600,199,457,233,263,144,292

Sequence,antibody binding signal [1],antibody binding signal [2],antibody binding signal [3],antibody binding signal [4],antibody binding signal [5],antibody binding signal [6],antibody binding signal [7],antibody binding signal [8],antibody binding signal [9],antibody binding signal [10],antibody binding signal [11],antibody binding signal [12]
KDKKTATGGTPSPSG,342,252,211,1010,199,1180,171,81.9,123,100,84.2,122
ENKPATGGAPSPPGA,2100,17100,5850,408,782,3180,415,992,280,186,189,253
ISTPPSGKDNKAATG,4800,746,2630,388,16400,2400,270,489,120,148,98.8,158
GKDNKAAAGETPSQP,1390,756,31900,2360,2430,2250,174,349,96,197,91.7,112
PPSGTEKKPATGETP,43700,28400,34100,914,6950,21600,1070,674,1150,435,1920,365
ISTPPSGKENKAAAG,29000,5340,5970,457,3830,1820,2260,952,154,810,147,443
SSTPPSGTDNKAAAG,47900,44300,51300,2430,23200,20000,1160,731,1780,165,257,365
KDNKTATGEAPSQSG,16400,27500,22600,2030,281,21300,604,235,188,275,175,170
GTEKKAAAGGAPSQP,747,318,1210,4920,809,498,178,335,242,128,129,121
SGKDNKAAAGETPSQ,772,323,7040,2020,1080,1660,182,370,136,710,115,117
SGKDNKAAAGGAPSP,459,240,990,2170,1090,1380,179,206,117,424,79,129
TPPSGTDNKPATGET,46100,43100,47400,7410,25300,23600,2350,644,542,379,2760,3310
PPSGTDKKAATGGTP,9460,1460,21200,3750,30100,2600,399,250,573,1030,1340,248
STPPSGTEKKAATGE,35400,28200,26700,287,21000,3080,995,310,522,321,138,131
DNKPATGETPSQSGA,38900,33400,37800,222,188,27500,258,380,389,173,1780,159
KTATGGTPSQSGASS,526,381,1200,522,436,181,571,173,146,112,368,254
GTEKKTATGEAPSQP,14000,24500,38400,924,1700,20600,207,676,245,111,233,136
PSGTEKKAATGGTPS,11200,907,4830,5720,7830,6170,659,430,924,834,272,304
TDNKPATGEAPSQSG,47500,52700,52100,378,233,40200,873,647,309,166,524,150
TENKAAAGGTPSPPG,36700,262,220,3070,353,960,100,146,1190,385,143,138
TPPSGKDNKPATGET,21200,14100,32400,230,34200,16200,473,744,337,244,2400,1990
GTDKKTAAGETPSPP,227,257,466,1030,531,2890,159,311,162,649,218,462
TDNKTAAGETPSQSG,188,377,2180,180,273,236,124,387,447,156,193,133
PSGTEKKPAAGETPS,27000,6560,20700,6260,6590,6900,677,501,872,1110,846,610
KAAAGGAPSPPGASS,239,235,251,4500,370,777,197,144,103,123,90.9,163
